Laboratory results published in the supplement of paper PMC12217912.
Some of the results follow. Sequences were assembled here from the parent chain. Values near 0.05 are background.

B1: TEV protease; numbered along this chain (parent)
chain: MGESLFKGPRDYNPISSSICHLTNESDGHTTSLYGIGFGPFIITNKHLFRRNNGTLVVQSLHGVFKVKDTTTLQQHLVDGRDMIIIRMPKDFPPFPQKLKFREPQREERICLVTTNFQTKSMSSMVSDTSCTFPSGDGIFWKHWIQTKDGQCGSPLVSTRDGFIVGIHSASNFTNTNNYFTSVPKNFMELLTNQEAQQWVSGWRLNADSVLWGGHKVFMVKPEEPFQPVKEATQL

Variants of: B1
Test: raw area under fraction-flipped curve 0-4 h after induction (AUC4h, not background-subtracted), DNA-recorder readout of cleavage of the substrate (dimensionless); higher = more cleavage of the substrate by the protease variant
Details: temperature: 34 °C; time window: 0-4 h after rhamnose induction
Protocol: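 In vivo DNA recorder in E. coli TOP10(DE3) ΔrhaA at 34 °C. Each TEVp single-site mutant (parent TEVp 0) is paired with a single-site variant of the 7-mer TEVs (canonical ENLYFQ|S). The substrate sits between flexible linkers in a Bxb1-sfGFP-TEVs-SsrA fusion, so cleavage stabilises Bxb1 and speeds flipping of a recombination array, read by NGS. The value is the raw area under the fraction-flipped curve over 0-4 h after rhamnose induction (AUC4h), with ≥20 reads per time point. It is not background-subtracted; inactive controls average about 0.047.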
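Also: Bxb1 expression induced with 0.2% (w/v) L-rhamnose at OD600 near 0.5, cultures sampled hourly, flipped fraction per protease–substrate barcode pair counted by paired-end Illumina sequencing.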

| Variant | area with substrate ENLAFQS | area with substrate ENLDFQS | area with substrate ENLEFQS | area with substrate ENLFFQS | area with substrate ENLKFQS | area with substrate ENLLFQS | area with substrate ENLMFQS | area with substrate ENLPFQS | area with substrate ENLQFQS | area with substrate ENLSFQS | area with substrate ENLWFQS | area with substrate ENLCFQS | area with substrate ENLHFQS | area with substrate ENLNFQS | area with substrate ENLRFQS | area with substrate ENLIFQS | area with substrate ENLVFQS | area with substrate ENLGFQS | area with substrate ENLTFQS |
| --- | --- | --- | --- | --- | --- | --- | --- | --- | --- | --- | --- | --- | --- | --- | --- | --- | --- | --- | --- |
| MGESLHKGPRDYNPISSSICHLTNESDGHTTSLYGIGFGPFIITNKHLFRRNNGTLVVQSLHGVFKVKDTTTLQQHLVDGRDMIIIRMPKDFPPFPQKLKFREPQREERICLVTTNFQTKSMSSMVSDTSCTFPSGDGIFWKHWIQTKDGQCGSPLVSTRDGFIVGIHSASNFTNTNNYFTSVPKNFMELLTNQEAQQWVSGWRLNADSVLWGGHKVFMVKPEEPFQPVKEATQL [F6H] | 0.0547 | 0.0707 | 0.0652 | 0.0593 | 0.0834 | 0.0789 | 0.0907 | 0.0549 | 0.08 | 0.0814 | 0.0688 | – | – | – | – | – | – | – | – |
| MGESLFKGPCDYNPISSSICHLTNESDGHTTSLYGIGFGPFIITNKHLFRRNNGTLVVQSLHGVFKVKDTTTLQQHLVDGRDMIIIRMPKDFPPFPQKLKFREPQREERICLVTTNFQTKSMSSMVSDTSCTFPSGDGIFWKHWIQTKDGQCGSPLVSTRDGFIVGIHSASNFTNTNNYFTSVPKNFMELLTNQEAQQWVSGWRLNADSVLWGGHKVFMVKPEEPFQPVKEATQL [R10C] | 0.0691 | 0.0645 | 0.0565 | 0.0752 | – | 0.0836 | – | 0.0351 | 0.11 | 0.054 | – | 0.0628 | 0.0696 | 0.0623 | 0.0653 | – | – | – | – |
| MGESLFKGPGDYNPISSSICHLTNESDGHTTSLYGIGFGPFIITNKHLFRRNNGTLVVQSLHGVFKVKDTTTLQQHLVDGRDMIIIRMPKDFPPFPQKLKFREPQREERICLVTTNFQTKSMSSMVSDTSCTFPSGDGIFWKHWIQTKDGQCGSPLVSTRDGFIVGIHSASNFTNTNNYFTSVPKNFMELLTNQEAQQWVSGWRLNADSVLWGGHKVFMVKPEEPFQPVKEATQL [R10G] | 0.0554 | 0.048 | 0.0575 | 0.0798 | 0.0796 | 0.0667 | 0.0726 | 0.0578 | – | 0.062 | 0.059 | – | 0.0637 | 0.066 | 0.0809 | 0.0841 | 0.101 | – | – |
| MGESLFKGPPDYNPISSSICHLTNESDGHTTSLYGIGFGPFIITNKHLFRRNNGTLVVQSLHGVFKVKDTTTLQQHLVDGRDMIIIRMPKDFPPFPQKLKFREPQREERICLVTTNFQTKSMSSMVSDTSCTFPSGDGIFWKHWIQTKDGQCGSPLVSTRDGFIVGIHSASNFTNTNNYFTSVPKNFMELLTNQEAQQWVSGWRLNADSVLWGGHKVFMVKPEEPFQPVKEATQL [R10P] | 0.0802 | 0.0659 | 0.0589 | 0.0726 | 0.0768 | – | 0.0728 | 0.0484 | 0.053 | 0.0647 | 0.0644 | 0.0724 | 0.0687 | 0.0683 | 0.0709 | – | – | – | – |
| MGENLFKGPRDYNPISSSICHLTNESDGHTTSLYGIGFGPFIITNKHLFRRNNGTLVVQSLHGVFKVKDTTTLQQHLVDGRDMIIIRMPKDFPPFPQKLKFREPQREERICLVTTNFQTKSMSSMVSDTSCTFPSGDGIFWKHWIQTKDGQCGSPLVSTRDGFIVGIHSASNFTNTNNYFTSVPKNFMELLTNQEAQQWVSGWRLNADSVLWGGHKVFMVKPEEPFQPVKEATQL [S4N] | 0.0651 | 0.0745 | 0.0793 | 0.0646 | 0.0665 | 0.0647 | – | 0.051 | – | 0.0669 | 0.0948 | – | 0.0735 | 0.117 | 0.0863 | 0.0623 | 0.0928 | – | – |
| MGEMLFKGPRDYNPISSSICHLTNESDGHTTSLYGIGFGPFIITNKHLFRRNNGTLVVQSLHGVFKVKDTTTLQQHLVDGRDMIIIRMPKDFPPFPQKLKFREPQREERICLVTTNFQTKSMSSMVSDTSCTFPSGDGIFWKHWIQTKDGQCGSPLVSTRDGFIVGIHSASNFTNTNNYFTSVPKNFMELLTNQEAQQWVSGWRLNADSVLWGGHKVFMVKPEEPFQPVKEATQL [S4M] | 0.062 | 0.0606 | 0.0715 | 0.0857 | 0.0752 | – | – | 0.0649 | – | 0.0725 | – | – | 0.0659 | 0.0683 | 0.0685 | 0.0906 | – | 0.0604 | – |
| MGEGLFKGPRDYNPISSSICHLTNESDGHTTSLYGIGFGPFIITNKHLFRRNNGTLVVQSLHGVFKVKDTTTLQQHLVDGRDMIIIRMPKDFPPFPQKLKFREPQREERICLVTTNFQTKSMSSMVSDTSCTFPSGDGIFWKHWIQTKDGQCGSPLVSTRDGFIVGIHSASNFTNTNNYFTSVPKNFMELLTNQEAQQWVSGWRLNADSVLWGGHKVFMVKPEEPFQPVKEATQL [S4G] | 0.0509 | 0.0586 | 0.062 | 0.102 | 0.0904 | 0.0696 | – | 0.0531 | 0.072 | – | 0.0756 | 0.0841 | 0.075 | 0.0651 | – | 0.0677 | – | – | – |
| MGESLFKGPRAYNPISSSICHLTNESDGHTTSLYGIGFGPFIITNKHLFRRNNGTLVVQSLHGVFKVKDTTTLQQHLVDGRDMIIIRMPKDFPPFPQKLKFREPQREERICLVTTNFQTKSMSSMVSDTSCTFPSGDGIFWKHWIQTKDGQCGSPLVSTRDGFIVGIHSASNFTNTNNYFTSVPKNFMELLTNQEAQQWVSGWRLNADSVLWGGHKVFMVKPEEPFQPVKEATQL [D11A] | 0.0707 | 0.0663 | 0.0721 | 0.0906 | 0.0765 | – | 0.0711 | 0.0671 | 0.0524 | 0.066 | 0.0621 | 0.079 | 0.0693 | 0.0667 | – | – | 0.0824 | – | – |
| MGESLFKGPRLYNPISSSICHLTNESDGHTTSLYGIGFGPFIITNKHLFRRNNGTLVVQSLHGVFKVKDTTTLQQHLVDGRDMIIIRMPKDFPPFPQKLKFREPQREERICLVTTNFQTKSMSSMVSDTSCTFPSGDGIFWKHWIQTKDGQCGSPLVSTRDGFIVGIHSASNFTNTNNYFTSVPKNFMELLTNQEAQQWVSGWRLNADSVLWGGHKVFMVKPEEPFQPVKEATQL [D11L] | 0.0888 | 0.0653 | 0.0651 | 0.0741 | 0.0677 | 0.0511 | 0.071 | 0.0626 | 0.0704 | 0.0672 | 0.0748 | 0.0739 | 0.0627 | 0.0505 | 0.0725 | 0.0717 | 0.0898 | 0.0662 | 0.0714 |
